Test results from the antibiotic and cytotoxicity screens of Wong et al. (2023).
Some of the results follow.

What was measured:
HSkMC = human skeletal muscle cells; assay: cytotoxicity call (relative viability < 0.9); conditions: 10 µM
HepG2 = assay: cytotoxicity call (relative viability < 0.9); conditions: 10 µM
S. aureus RN4220 = assay: growth inhibition call (relative growth <= 0.2); conditions: 50 µM

Row | Structure (SMILES) | cytotoxicity call (HSkMC) | cytotoxicity call (HepG2) | growth inhibition call (S. aureus RN4220)
1 | O=C(C[C@H]1CC[C@@H]2[C@H](COC[C@H](O)CN2S(=O)(=O)c2ccc(F)cc2)O1)NCCN1CCCCC1 | inactive | inactive | inactive
2 | C[C@@H]1CCCCO[C@@H](CN(C)C(=O)Cc2ccccc2)[C@@H](C)CN([C@H](C)CO)C(=O)c2cc(NS(=O)(=O)c3cccs3)ccc2O1 | inactive | inactive | inactive
3 | COc1ccccc1-c1ccc2c(c1)O[C@H](CN(C)C(=O)c1ccncc1)[C@H](C)CN([C@@H](C)CO)S2(=O)=O | inactive | inactive | inactive
4 | C[C@@H]1CN([C@@H](C)CO)C(=O)Cc2cc(NS(=O)(=O)c3ccccc3)ccc2O[C@H]1CN(C)Cc1ccc(Cl)c(Cl)c1 | active | active | inactive
5 | Cc1ccc(S(=O)(=O)N[C@H]2C=C[C@@H](CC(=O)NCCN3CCCCC3)O[C@@H]2CO)cc1 | inactive | inactive | inactive
6 | CC(=O)OC1CC(OC(C)=O)C2(C)C(CC(OC(C)=O)C3(C)C2CCC2(C)C(c4ccoc4)OC(=O)C4OC423)C1(C)C (stereo unspecified) | inactive | inactive | inactive
7 | C[C@@H]1CN([C@@H](C)CO)C(=O)c2cc(NC(=O)Nc3ccc(F)cc3)ccc2O[C@H]1CN(C)CC1CCCCC1 | inactive | inactive | inactive
8 | Nc1ccc(S(=O)(=O)Nc2ncccn2)cc1 | inactive | inactive | inactive
9 | CO[C@H]1CN(C)C(=O)c2cc(NS(=O)(=O)CC(F)(F)F)ccc2OC[C@@H](C)N(C(=O)NC(C)C)C[C@H]1C | inactive | inactive | inactive
10 | C[C@@H]1CN([C@H](C)CO)C(=O)Cc2cc(NC(=O)Nc3ccc(F)cc3)ccc2O[C@@H]1CN(C)CC1CCCCC1 | active | active | inactive
11 | C[C@@H]1CCCCO[C@H](CN(C)S(=O)(=O)c2cccs2)[C@@H](C)CN([C@H](C)CO)C(=O)c2cc(NC(=O)Cc3ccccc3)ccc2O1 | inactive | inactive | inactive
12 | C[C@H](CO)N1C[C@H](C)[C@H](CN(C)C(=O)CN(C)C)Oc2cc(C#Cc3ccc(F)cc3)ccc2S1(=O)=O | inactive | inactive | inactive
13 | O=C(C[C@@H]1C=C[C@H](NC(=O)c2cccc(F)c2)[C@@H](CO)O1)NCCN1CCCC1 | inactive | inactive | inactive
14 | O=C([C@@H]1[C@@H](CO)[C@@H]2Cn3c(cccc3=O)[C@H]1N2S(=O)(=O)c1ccccc1F)N1CCOCC1 | inactive | inactive | inactive
15 | CC(O)C(=O)[O-].[Na+] (stereo unspecified) | inactive | inactive | inactive
16 | CCCCc1cc(CCCC)n2nc(-c3ccccc3)cc2n1 | inactive | inactive | inactive
17 | COc1ccc(S(=O)(=O)N(C)C[C@@H]2OCCCC[C@@H](C)Oc3ccc(NC(=O)Nc4ccc(C(F)(F)F)cc4)cc3C(=O)N([C@@H](C)CO)C[C@@H]2C)cc1 | inactive | inactive | inactive
18 | COCC(=O)N1C[C@]2(C1)CN([C@H](CO)c1[nH]c3cc(ccc3c12)OC)S(=O)(=O)C | inactive | inactive | inactive
19 | O=C(Nc1ccc(Cl)cc1C(=O)c1ccc(Cl)cc1)c1cc(Br)ccc1NS(=O)(=O)c1ccc(Cl)cc1 | inactive | active | inactive
20 | CC(C)CC#Cc1ccc2c(c1)O[C@H](CN(C)C(=O)C1CCOCC1)[C@H](C)CN([C@H](C)CO)S2(=O)=O | inactive | inactive | inactive
21 | COc1ccc2c3c(n(c2c1)C)[C@@H](CO)N(C[C@]13CCN(CC1)C(=O)Nc1cccc(c1)F)C(=O)CN1CCOCC1 | inactive | inactive | inactive
22 | CCS(=O)(=O)NCCc1csc(C)n1 | inactive | inactive | inactive
23 | C[C@H]1CN([C@@H](C)CO)S(=O)(=O)c2ccc(Br)cc2O[C@@H]1CN(C)Cc1cccc(F)c1 | inactive | inactive | inactive
24 | C[C@@H]1CN([C@H](C)CO)C(=O)CCCn2cc(nn2)CO[C@H]1CN(C)C(=O)Nc1cccc2ccccc12 | inactive | inactive | inactive
25 | Cc1noc(C)c1NC(=O)Nc1cccc2c1O[C@@H](CN(C)Cc1ccc(Oc3ccccc3)cc1)[C@H](C)CN([C@H](C)CO)C2=O | inactive | inactive | inactive
26 | C=CC[C@@H](CC(=O)N(CCO)Cc1ccccc1)C(=O)N[C@H](COC(=O)[C@H](CC=C)NC(=O)OCC1c2ccccc2-c2ccccc21)C(C)(C)C | inactive | inactive | inactive
27 | C[C@@H]1CN([C@H](C)CO)C(=O)Cc2cc(NC(=O)Nc3cccc4ccccc34)ccc2O[C@H]1CN(C)Cc1ccccc1 | inactive | inactive | inactive
